Some of the results follow.
Legend:
HSkMC = human skeletal muscle cells; assay: cytotoxicity call (relative viability < 0.9); conditions: 10 µM
HepG2 = assay: cytotoxicity call (relative viability < 0.9); conditions: 10 µM
S. aureus RN4220 = assay: growth inhibition call (relative growth <= 0.2); conditions: 50 µM

Row | Structure (SMILES) | cytotoxicity call (HSkMC) | cytotoxicity call (HepG2) | growth inhibition call (S. aureus RN4220)
1 | C[C@H]1CCCCO[C@H](CN(C)C(=O)Nc2ccc3c(c2)OCO3)[C@@H](C)CN([C@@H](C)CO)C(=O)c2cc(NS(=O)(=O)c3ccccc3)ccc2O1 | inactive | inactive | inactive
2 | C[C@@H]1CN([C@@H](C)CO)S(=O)(=O)c2ccc(C#CC3(O)CCCC3)cc2O[C@@H]1CN(C)C(=O)c1cccnc1 | inactive | inactive | inactive
3 | CC(=N)NCCCC[C@@H](N)C(=O)O | inactive | inactive | inactive
4 | C[C@H]1[C@H]([Si](C)(C)F)[C@@H](CCO)O[C@]12C(=O)N(Cc1cccc(N3C(=O)c4ccccc4Oc4ccccc43)c1)c1ccccc12 | inactive | inactive | inactive
5 | CN(C)CC(=O)N[C@@H]1CC[C@@H](CCNC(=O)C2CC2)O[C@@H]1CO | inactive | inactive | inactive
6 | C[C@H]1CN([C@@H](C)CO)C(=O)Cc2cc(NC(=O)Cc3cn(C)c4ccccc34)ccc2O[C@@H]1CN(C)C(=O)Nc1ccc(C(F)(F)F)cc1 | inactive | inactive | inactive
7 | C[C@@H]1CCCCO[C@H](CN(C)C(=O)CCC(F)(F)F)[C@@H](C)CN([C@@H](C)CO)C(=O)c2cc(NC(=O)Nc3ccccc3)ccc2O1 | inactive | inactive | inactive
8 | COc1ccc(S(=O)(=O)Nc2ccc3c(c2)C(=O)N([C@@H](C)CO)C[C@H](C)[C@@H](CN(C)C(=O)NC2CCCCC2)OCCCC[C@@H](C)O3)cc1 | inactive | inactive | inactive
9 | CC(C)N1C[C@H](C)[C@@H](CN(C)Cc2cccc(Cl)c2)Oc2c(NC(=O)c3ccncc3)cccc2C1=O | inactive | inactive | inactive
10 | COc1ccc(S(=O)(=O)Nc2ccc3c(c2)CC(=O)N([C@@H](C)CO)C[C@H](C)[C@H](CN(C)S(=O)(=O)c2c(C)noc2C)O3)cc1 | inactive | inactive | inactive
11 | C[C@H]1CN([C@@H](C)CO)C(=O)Cc2cc(NC(=O)C3CC3)ccc2O[C@H]1CN(C)S(=O)(=O)c1ccc(Cl)cc1 | inactive | active | inactive
12 | Cl.O=C(O)c1cn(-c2ccc(F)cc2)c2cc(N3CCNCC3)c(F)cc2c1=O | inactive | inactive | active
13 | Cc1ccc(S(=O)(=O)Nc2ccc3c(c2)CC(=O)N([C@H](C)CO)C[C@H](C)[C@@H](CN(C)Cc2ccc(Cl)c(Cl)c2)O3)cc1 | inactive | inactive | inactive
14 | C[C@H](CO)N1C[C@H](C)[C@@H](CN(C)C(=O)c2ccncc2)OCCCC[C@H](C)Oc2ccc(NS(=O)(=O)c3cn(C)cn3)cc2C1=O | inactive | inactive | inactive
15 | CC1=C(C(=O)O)N2C(=O)[C@@H](NC(=O)[C@@H](N)c3ccccc3)[C@H]2SC1 | inactive | inactive | inactive
16 | C[C@@H]1CN([C@H](C)CO)C(=O)c2cc(NC(=O)Nc3ccc(C(F)(F)F)cc3)ccc2O[C@@H](C)CCCCO[C@@H]1CN(C)S(=O)(=O)c1cn(C)cn1 | inactive | inactive | inactive
17 | N[C@@H](CS(=O)O)C(=O)O | inactive | inactive | inactive
18 | Cc1ccc(S(=O)(=O)N(C)C[C@H]2OCCCC[C@H](C)Oc3ccc(NC(=O)CCC(F)(F)F)cc3C(=O)N([C@@H](C)CO)C[C@@H]2C)cc1 | inactive | inactive | inactive
19 | C[C@@H]1CN([C@@H](C)CO)C(=O)c2cc(NS(=O)(=O)c3ccc(Cl)cc3)ccc2O[C@@H](C)CCCCO[C@@H]1CN(C)S(=O)(=O)c1cccs1 | inactive | inactive | inactive
20 | O=C(CN1CCOCC1)N[C@H]1CC[C@H](CCn2cc(C3CCCC3)nn2)O[C@H]1CO | inactive | inactive | inactive
21 | CO[C@@H]1CN(C)C(=O)c2cc(NS(=O)(=O)c3cn(C)cn3)ccc2OC[C@@H](C)N(Cc2cccc(F)c2)C[C@@H]1C | inactive | inactive | inactive
22 | C=C(C)CCn1cccc1C(C)=O | inactive | inactive | inactive
23 | Cc1ccc(S(=O)(=O)N(C)C[C@H]2Oc3c(NC(=O)c4ccncc4)cccc3C(=O)N([C@@H](C)CO)C[C@@H]2C)cc1 | inactive | inactive | inactive
24 | CC(C)NC(=O)Nc1ccc2c(c1)CC(=O)N([C@@H](C)CO)C[C@@H](C)[C@@H](CN(C)S(=O)(=O)c1cn(C)cn1)O2 | inactive | inactive | inactive
25 | Cc1noc(C)c1S(=O)(=O)Nc1ccc2c(c1)CC(=O)N([C@H](C)CO)C[C@@H](C)[C@@H](CN(C)S(=O)(=O)c1ccc(F)cc1)O2 | inactive | inactive | inactive
